# The other results are listed elsewhere or left out.
# Columns and labels:
# Assay in all cases: glycan array binding signal (z-score within array); higher = stronger binding
# Conditions in all cases: glycan notation: IUPAC condensed, linker removed
# [1] = target: GlcNAc(a1-6)Gal(b1-4)GlcNAc
# How it was run: (§1)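 Glycan array data came from 3228 arrays in the Consortium for Functional Glycomics database, and only arrays with an available protein sequence were kept. Glycan names were put into IUPAC-condensed notation, and columns mapping to the same glycan were averaged. The binding signal is a within-array Z-score, averaged across arrays of one protein sequence run at different concentrations or buffers and across linkers. A negative Z-score can be read as non-binding.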
# [2] = target: GlcNAc(b1-2)Gal(b1-3)GalNAc
# How it was run: as §1
# [3] = target: GlcNAc(b1-2)Man(a1-3)[GlcNAc(b1-2)Man(a1-6)]Man(b1-4)GlcNAc(b1-4)GlcNAc
# How it was run: as §1
# [4] = target: GlcNAc(b1-2)Man(a1-3)[GlcNAc(b1-2)Man(a1-6)]Man(b1-4)GlcNAc(b1-4)[Fuc(a1-6)]GlcNAc
# How it was run: as §1
# [5] = target: GlcNAc(b1-2)Man(a1-3)[GlcNAc(b1-4)][GlcNAc(b1-2)Man(a1-6)]Man(b1-4)GlcNAc(b1-4)GlcNAc
# How it was run: as §1
# [6] = target: GlcNAc(b1-2)Man(a1-3)[GlcNAc(b1-4)][GlcNAc(b1-2)Man(a1-6)]Man(b1-4)GlcNAc(b1-4)[Fuc(a1-6)]GlcNAc
# How it was run: as §1
# [7] = target: GlcNAc(b1-2)[GlcNAc(b1-4)]Man(a1-3)[GlcNAc(b1-2)Man(a1-6)]Man(b1-4)GlcNAc(b1-4)GlcNAc
# How it was run: as §1
# [8] = target: GlcNAc(b1-2)[GlcNAc(b1-4)]Man(a1-3)[GlcNAc(b1-4)][GlcNAc(b1-2)Man(a1-6)]Man(b1-4)GlcNAc(b1-4)GlcNAc
# How it was run: as §1
# [9] = target: GlcNAc(b1-2)[GlcNAc(b1-4)]Man(a1-3)[GlcNAc(b1-4)][GlcNAc(b1-2)[GlcNAc(b1-6)]Man(a1-6)]Man(b1-4)GlcNAc(b1-4)GlcNAc
# How it was run: as §1
# [10] = target: GlcNAc(b1-2)[GlcNAc(b1-4)]Man(a1-3)[GlcNAc(b1-4)][GlcNAc(b1-2)[GlcNAc(b1-6)]Man(a1-6)]Man(b1-4)GlcNAc(b1-4)[Fuc(a1-6)]GlcNAc
# How it was run: as §1
# [11] = target: GlcNAc(b1-2)[GlcNAc(b1-6)]Man(a1-6)[GlcNAc(b1-2)Man(a1-3)]Man(b1-4)GlcNAc(b1-4)GlcNAc
# How it was run: as §1
# [12] = target: GlcNAc(b1-2)[GlcNAc(b1-6)]Man(a1-6)[GlcNAc(b1-2)Man(a1-3)]Man(b1-4)GlcNAc(b1-4)[Fuc(a1-6)]GlcNAc
# How it was run: as §1
# [13] = target: GlcNAc(b1-2)[GlcNAc(b1-6)]Man(a1-6)[GlcNAc(b1-4)][GlcNAc(b1-2)Man(a1-3)]Man(b1-4)GlcNAc(b1-4)GlcNAc
# How it was run: as §1
# [14] = target: GlcNAc(b1-3)Fuc
# How it was run: as §1
# [15] = target: GlcNAc(b1-3)Gal
# How it was run: as §1
# [16] = target: GlcNAc(b1-3)Gal(b1-3)GalNAc
# How it was run: as §1
# [17] = target: GlcNAc(b1-3)Gal(b1-4)Glc
# How it was run: as §1
# [18] = target: GlcNAc(b1-3)Gal(b1-4)GlcNAc
# How it was run: as §1
# [19] = target: GlcNAc(b1-3)Gal(b1-4)GlcNAc(b1-2)Man(a1-3)[GlcNAc(b1-3)Gal(b1-4)GlcNAc(b1-2)Man(a1-6)]Man(b1-4)GlcNAc(b1-4)GlcNAc
# How it was run: as §1
# [20] = target: GlcNAc(b1-3)Gal(b1-4)GlcNAc(b1-2)Man(a1-3)[GlcNAc(b1-3)Gal(b1-4)GlcNAc(b1-2)Man(a1-6)]Man(b1-4)GlcNAc(b1-4)[Fuc(a1-6)]GlcNAc
# How it was run: as §1
# [21] = target: GlcNAc(b1-3)Gal(b1-4)GlcNAc(b1-2)[GlcNAc(b1-3)Gal(b1-4)GlcNAc(b1-6)]Man(a1-6)[GlcNAc(b1-3)Gal(b1-4)GlcNAc(b1-2)Man(a1-3)]Man(b1-4)GlcNAc(b1-4)GlcNAc
# How it was run: as §1
# [22] = target: GlcNAc(b1-3)Gal(b1-4)GlcNAc(b1-3)Gal(b1-4)GlcNAc
# How it was run: as §1
# [23] = target: GlcNAc(b1-3)Gal(b1-4)GlcNAc(b1-3)Gal(b1-4)GlcNAc(b1-2)Man(a1-3)[GlcNAc(b1-3)Gal(b1-4)GlcNAc(b1-3)Gal(b1-4)GlcNAc(b1-2)Man(a1-6)]Man(b1-4)GlcNAc(b1-4)GlcNAc
# How it was run: as §1
# [24] = target: GlcNAc(b1-3)Gal(b1-4)GlcNAc(b1-3)Gal(b1-4)GlcNAc(b1-2)Man(a1-3)[GlcNAc(b1-3)Gal(b1-4)GlcNAc(b1-3)Gal(b1-4)GlcNAc(b1-2)Man(a1-6)]Man(b1-4)GlcNAc(b1-4)[Fuc(a1-6)]GlcNAc
# How it was run: as §1
# [25] = target: GlcNAc(b1-3)Gal(b1-4)GlcNAc(b1-3)Gal(b1-4)GlcNAc(b1-2)[GlcNAc(b1-3)Gal(b1-4)GlcNAc(b1-3)Gal(b1-4)GlcNAc(b1-6)]Man(a1-6)[GlcNAc(b1-3)Gal(b1-4)GlcNAc(b1-3)Gal(b1-4)GlcNAc(b1-2)Man(a1-3)]Man(b1-4)GlcNAc(b1-4)[Fuc(a1-6)]GlcNAc
# How it was run: as §1
# [26] = target: GlcNAc(b1-3)Gal(b1-4)GlcNAc(b1-3)Gal(b1-4)GlcNAc(b1-3)Gal(b1-4)GlcNAc(b1-2)Man(a1-3)[GlcNAc(b1-3)Gal(b1-4)GlcNAc(b1-3)Gal(b1-4)GlcNAc(b1-3)Gal(b1-4)GlcNAc(b1-2)Man(a1-6)]Man(b1-4)GlcNAc(b1-4)GlcNAc
# How it was run: as §1
# [27] = target: GlcNAc(b1-3)Gal(b1-4)GlcNAc(b1-3)Gal(b1-4)GlcNAc(b1-3)Gal(b1-4)GlcNAc(b1-2)Man(a1-3)[GlcNAc(b1-3)Gal(b1-4)GlcNAc(b1-3)Gal(b1-4)GlcNAc(b1-3)Gal(b1-4)GlcNAc(b1-2)Man(a1-6)]Man(b1-4)GlcNAc(b1-4)[Fuc(a1-6)]GlcNAc
# How it was run: as §1
# [28] = target: GlcNAc(b1-3)Gal(b1-4)GlcNAc(b1-3)Gal(b1-4)GlcNAc(b1-3)Gal(b1-4)GlcNAc(b1-2)[GlcNAc(b1-3)Gal(b1-4)GlcNAc(b1-3)Gal(b1-4)GlcNAc(b1-3)Gal(b1-4)GlcNAc(b1-6)]Man(a1-6)[GlcNAc(b1-3)Gal(b1-4)GlcNAc(b1-3)Gal(b1-4)GlcNAc(b1-3)Gal(b1-4)GlcNAc(b1-2)Man(a1-3)]Man(b1-4)GlcNAc(b1-4)[Fuc(a1-6)]GlcNAc
# How it was run: as §1
# [29] = target: GlcNAc(b1-3)Gal(b1-4)GlcNAc(b1-3)Gal(b1-4)GlcNAc(b1-3)Gal(b1-4)GlcNAc(b1-3)Gal(b1-4)GlcNAc(b1-2)Man(a1-3)[GlcNAc(b1-3)Gal(b1-4)GlcNAc(b1-3)Gal(b1-4)GlcNAc(b1-3)Gal(b1-4)GlcNAc(b1-3)Gal(b1-4)GlcNAc(b1-2)Man(a1-6)]Man(b1-4)GlcNAc(b1-4)GlcNAc
# How it was run: as §1
# [30] = target: GlcNAc(b1-3)Gal(b1-4)GlcNAc(b1-3)Gal(b1-4)GlcNAc(b1-3)Gal(b1-4)GlcNAc(b1-3)Gal(b1-4)GlcNAc(b1-2)Man(a1-3)[GlcNAc(b1-3)Gal(b1-4)GlcNAc(b1-3)Gal(b1-4)GlcNAc(b1-3)Gal(b1-4)GlcNAc(b1-3)Gal(b1-4)GlcNAc(b1-2)Man(a1-6)]Man(b1-4)GlcNAc(b1-4)[Fuc(a1-6)]GlcNAc
# How it was run: as §1
# [31] = target: GlcNAc(b1-3)Gal(b1-4)GlcNAc(b1-3)Gal(b1-4)GlcNAc(b1-3)Gal(b1-4)GlcNAc(b1-3)Gal(b1-4)GlcNAc(b1-2)[GlcNAc(b1-3)Gal(b1-4)GlcNAc(b1-3)Gal(b1-4)GlcNAc(b1-3)Gal(b1-4)GlcNAc(b1-3)Gal(b1-4)GlcNAc(b1-6)]Man(a1-6)[GlcNAc(b1-3)Gal(b1-4)GlcNAc(b1-3)Gal(b1-4)GlcNAc(b1-3)Gal(b1-4)GlcNAc(b1-3)Gal(b1-4)GlcNAc(b1-2)Man(a1-3)]Man(b1-4)GlcNAc(b1-4)[Fuc(a1-6)]GlcNAc
# How it was run: as §1
# [32] = target: GlcNAc(b1-3)Gal(b1-4)GlcNAc(b1-3)Gal(b1-4)GlcNAc(b1-3)GalNAc
# How it was run: as §1
# [33] = target: GlcNAc(b1-3)Gal(b1-4)GlcNAc(b1-3)GalNAc
# How it was run: as §1
# [34] = target: GlcNAc(b1-3)Gal(b1-4)GlcNAc(b1-3)[GlcNAc(b1-3)Gal(b1-4)GlcNAc(b1-3)]GalNAc
# How it was run: as §1
# [35] = target: GlcNAc(b1-3)Gal(b1-4)GlcNAc(b1-6)[Gal(b1-3)]GalNAc
# How it was run: as §1
# [36] = target: GlcNAc(b1-3)Gal(b1-4)GlcNAc(b1-6)[GlcNAc(b1-3)Gal(b1-3)]GalNAc
# How it was run: as §1
# [37] = target: GlcNAc(b1-3)Gal(b1-4)GlcNAc(b1-6)[GlcNAc(b1-3)]Gal(b1-4)GlcNAc
# How it was run: as §1
# [38] = target: GlcNAc(b1-3)GalNAc
# How it was run: as §1
# [39] = target: GlcNAc(b1-3)Man
# How it was run: as §1
# [40] = target: GlcNAc(b1-3)[GlcNAc(b1-4)][GlcNAc(b1-6)]GlcNAc
# How it was run: as §1
# [41] = target: GlcNAc(b1-3)[GlcNAc(b1-6)]Gal(b1-4)GlcNAc
# How it was run: as §1
# [42] = target: GlcNAc(b1-3)[GlcNAc(b1-6)]GalNAc
# How it was run: as §1
# [43] = target: GlcNAc(b1-4)Gal(b1-4)GlcNAc
# How it was run: as §1
# [44] = target: GlcNAc(b1-4)GlcNAc
# How it was run: as §1
# [45] = target: GlcNAc(b1-4)GlcNAc(b1-4)GlcNAc
# How it was run: as §1
binder,measurement,setting,value
CTAEGIKKFEGDGYELFKDNFPAGEKFDNDDTNDQFYTVIF [MUB40 (Lactobacillus reuteri)],glycan array binding signal (z-score),[1],0.266
same,glycan array binding signal (z-score),[2],-0.359
same,glycan array binding signal (z-score),[3],-0.469
same,glycan array binding signal (z-score),[4],0.117
same,glycan array binding signal (z-score),[5],-0.288
same,glycan array binding signal (z-score),[6],1.21
same,glycan array binding signal (z-score),[7],0.495
same,glycan array binding signal (z-score),[8],0.537
same,glycan array binding signal (z-score),[9],0.381
same,glycan array binding signal (z-score),[10],-0.052
same,glycan array binding signal (z-score),[11],-0.318
same,glycan array binding signal (z-score),[12],0.341
same,glycan array binding signal (z-score),[13],-0.466
same,glycan array binding signal (z-score),[14],-0.127
same,glycan array binding signal (z-score),[15],-0.393
same,glycan array binding signal (z-score),[16],0.231
same,glycan array binding signal (z-score),[17],-0.35
same,glycan array binding signal (z-score),[18],0.128
same,glycan array binding signal (z-score),[19],0.142
same,glycan array binding signal (z-score),[20],-0.159
same,glycan array binding signal (z-score),[21],-0.034
same,glycan array binding signal (z-score),[22],0.512
same,glycan array binding signal (z-score),[23],1.03
same,glycan array binding signal (z-score),[24],2.39
same,glycan array binding signal (z-score),[25],0.204
same,glycan array binding signal (z-score),[26],0.376
same,glycan array binding signal (z-score),[27],4.26
same,glycan array binding signal (z-score),[28],0.238
same,glycan array binding signal (z-score),[29],-0.228
same,glycan array binding signal (z-score),[30],2.26
same,glycan array binding signal (z-score),[31],0.15
same,glycan array binding signal (z-score),[32],0.054
same,glycan array binding signal (z-score),[33],-0.176
same,glycan array binding signal (z-score),[34],-0.149
same,glycan array binding signal (z-score),[35],-1.06
same,glycan array binding signal (z-score),[36],1.71
same,glycan array binding signal (z-score),[37],0.183
same,glycan array binding signal (z-score),[38],-0.205
same,glycan array binding signal (z-score),[39],-0.357
same,glycan array binding signal (z-score),[40],-0.035
same,glycan array binding signal (z-score),[41],-0.672
same,glycan array binding signal (z-score),[42],0.365
same,glycan array binding signal (z-score),[43],-0.459
same,glycan array binding signal (z-score),[44],-0.521
same,glycan array binding signal (z-score),[45],-0.402

# Reference: the supplement of paper PMC8728848
